The results in this text go back to the RNAGym collection of RNA variant scans (doi:10.7554/elife.90254).

Read counts are not given, so values of variants with three or more changes are uncertain.

Sequences and labels used below:
B1: LINE1-mini (parent)
chain: GGCAGAGCUCAACACAGCGUGGCAAAGUGGCUGUGGCUAGACUGCC

In the data set the parent is B1. The data set is described as follows: self-cleavage, relative activity (ratio to wild type); higher = more cleavage; in vitro, sequencing; the parent is a self-cleaving ribozyme.
As for C23G U28C C31A U34C, the self-cleavage was determined as 0.02.
For C23G G35U U38A the value was 0.04.
For G22C G29U U32A the value was 0.05.
In the case of G22U C23A G33A G36U C46G, the self-cleavage came to 0.04.
For G22U U28C U38C the value was 0.17.
For G22C G29A U43C the value was 0.08.
For the variant G22C G30A G44C, the self-cleavage turned out to be 0.09.
As for G22U A24C G27C U34C, the self-cleavage is 0.12.
For the variant G22U G36U U43A C45G, the self-cleavage was found to be 0.05.
On to G22C G27A G30U G36A, for which the self-cleavage came to 0.03.
With G22U C31U C45A the figure was 0.04; with G22U G29C U32C G33U A39G, 0.04.
In the case of C23U A25C C45G, the self-cleavage stood at 0.05.
For the variant C23G U43G C46G, the self-cleavage came out at 0.04.
For C23A A24U G29A G33A A41C, the self-cleavage stood at 0.07.
For G22U G29C G36C C37A the value was 0.4.
As to C23G U34C U38A, the self-cleavage is 0.44.
With C23A G30U C46A the figure was 1.76.
Consider C23A G27U U38C, for which the self-cleavage turned out to be 0.46.
Turning to C23A C31G G36C C37U, the self-cleavage amounted to 0.02.
With G22U G30A A39G G44U the figure was 0.04.
With C23U G27U G36U the figure was 0.04; with C23A U38C C42G, 0.03.
For C23G G35A C42A the value was 0.03.
C23A G30U U32C G35C: the self-cleavage came out at 0.02.
With C23U A26C G30U U43A the figure was 0.07.
Regarding C23A G35C C37A, the self-cleavage amounted to 0.07.
With G22U G27U G29C the figure was 0.34; with G22C G27C U32A, 0.08; with G22U G30C C42A, 0.03.
With C23U C37A A39G the figure was 0.01.
With G22U A26C A41U U43C, the self-cleavage was 0.07.
With C23G G30A A39C the figure was 0.08.
With C23U A24C G27C U43A the figure was 0.06.
For G22U A39C G40C the value was 0.08.
As for C23U A24C A26U G27U, the self-cleavage came out at 1.07.
As to C23G C31U G44A, the self-cleavage is 0.02.
For the variant G22U G40A G44C, the self-cleavage is 0.17.
For C23A C31A G40C C46G the value was 0.43; for C23A G35U C45U, 0.27; for G22U C23U C37U G44C, 0.01.
For C23A G36A G40C the value was 0.57; for C23A A26C C37U, 0.02.
For C23A G27C G29U G30U G33C G40A the value was 0.04; for C23G G33A C42U, 0.06; for C23U A25C G30A, 0.65.
Consider G22U C23G U32C C37A, for which the self-cleavage was 0.1.
On to G22U C31U G35A G36A U38A C45A C46U, for which the self-cleavage is 0.07.
With C23U G27U C42G G44C the figure was 0.02.
Regarding G22C G36A G40C C46A, the self-cleavage stood at 0.09.
For G22U G27A C46A the value was 1.62; for C23U G27U U34A G35C G36A, 0.27; for C23G A39C G44A, 0.04.
For C23U A25G C42U the value was 0.17; for G22C G30A C42U U43C, 0.61.
For the variant G22U G36C G40A, the self-cleavage stood at 0.12.
C23U C37U C45U: the self-cleavage stood at 0.02.
As for C23U C37U C45A, the self-cleavage was determined as 0.08.
As for G22C U32G C42U, the self-cleavage was determined as 0.04.
For G22C U34G G36U A39G U43A, the self-cleavage is 0.02.
With G22C G30U C31A C46U the figure was 0.06; with G22C G36U G44U, 0.13.
With G22U G29C U38C the figure was 0.12.
For C23A C37G C42A the value was 0.01; for G22U C23G C37A, 0.04; for G22U U28A G36U U43A, 0.05.
For the variant C23G G27C U34C U38G, the self-cleavage is 0.03.
On to G22U A26C G29A, for which the self-cleavage stood at 0.1.
On to G22U C23A C46A, for which the self-cleavage is 0.84.
For the variant C23G G40U U43C, the self-cleavage was 0.03.
With C23G G40U U43A the figure was 0.01; with G22U U32G C45G, 0.75.
With G22C G30C G36C G40U the figure was 0.24; with C23A U28C U34G, 0.15.
Take C23U A24C A25U: the self-cleavage was determined as 0.78.
With G22U G27C G44U the figure was 0.25.
Turning to C23U A26G G30C U32A C37A G44C, the self-cleavage came out at 0.08.
Take C23A G36C C37A: the self-cleavage turned out to be 0.09.
Consider C23U A26C C45A, for which the self-cleavage worked out at 0.58.
Turning to G22U U34G A41U, the self-cleavage is 0.1.
For C23U A24G C31A U32A C46A the value was 0.19.
With C23A A39C C45A the figure was 0.08; with G22U U28C C31U G40U G44A, 0.04; with C23A C37U A41U C46A, 0.06.
With C23U G30C G35U the figure was 0.1.
For C23U A25G A41U, the self-cleavage was 0.52.
Regarding C23G U32C G33A U38C, the self-cleavage was found to be 0.02.
With C23A U32A G33U U38G C46G the figure was 0.03.
As for G22C G36U A39G, the self-cleavage worked out at 0.
As for C23A G29U G30A U34G, the self-cleavage came to 0.1.
As to C23A G30U C31U G33C C37G, the self-cleavage was 0.03.
Turning to G22U A39U G40U, the self-cleavage was determined as 0.37.
Regarding G22U U38A G40U A41U C42G, the self-cleavage stood at 0.17.
For C23A A26U G44U the value was 0.06; for G22U U32G C37U, 0.02.
Regarding C23G G36C U38G C42G G44U, the self-cleavage is 0.02.
With G22U C23U A24U G29U G44A, the self-cleavage was found to be 0.12.
Regarding G22U U32C C46A, the self-cleavage turned out to be 0.33.
For G22U G40A C45U the value was 0.08; for C23G C31A G44C, 0.06.
In the case of C23A G33C A39U C42U, the self-cleavage was found to be 0.08.
Take C23G G27U C45A: the self-cleavage came out at 0.29.
With G22C G29A C37A U38C the figure was 0.07; with C23A U38C A39U A41G, 0.22; with C23U A26G G27U, 0.78.
For G22U C37G C42A the value was 0.02; for G22U G33A G35C C46U, 0.05; for G22C U28C C42G G44A, 0.01.
For C23G A24U C37G C46G the value was 0.03.
Turning to C23U A24U G35U U43A, the self-cleavage amounted to 0.1.
As to G22U G27U C45U, the self-cleavage is 0.74.
As for C23G A24U G35A C37A A41U C42U, the self-cleavage stood at 0.01.
For C23A G33A C42G C46G the value was 0.03.
G22U U32A U38A: the self-cleavage was found to be 0.11.
For the variant G22C G27A G33A A41C, the self-cleavage was found to be 0.08.
In the case of C23U G27A U38A, the self-cleavage worked out at 0.64.
For the variant G22U U34C A39C G40A, the self-cleavage was 0.08.
For C23U A25G C37A the value was 0.01.
As for C23A C31A G44U, the self-cleavage is 0.09.
For G22U G30A U43C the value was 0.24; for C23A C31G C45A, 0.03; for C23A A24U U28G, 1.63.
C23U A25C A41U: the self-cleavage was 0.49.
Turning to G22C U38C A39G, the self-cleavage was 0.07.
As for G22C U32G G40C, the self-cleavage came out at 0.14.
For C23U A24C A26G C31U the value was 0.21.
With C23G A25C A26G U28C the figure was 0.41.
With C23G A26C A39U the figure was 0.64.
Turning to G22U G29U U34C, the self-cleavage was determined as 0.25.
With C23U A24G G44C the figure was 0.11.
With G22U C23G G36A the figure was 0.37; with G22U G27U C37A C45U, 0.01.
For G22C G29A G40U the value was 0.03; for G22U G36C G44U, 0.09.
On to C23U A24C G30U C42A, for which the self-cleavage was found to be 0.1.
With G22U A25U A39G the figure was 0.06; with C23A G29U G44C, 0.3.
For G22C G36A C37A the value was 0.19; for G22U C31G G36U, 0.06; for C23A A24U G35U, 0.13.
Regarding G22U A26U C37A C45G, the self-cleavage was 0.03.
Regarding G22U A25C A39U, the self-cleavage worked out at 0.13.
In the case of G22U U38C G40A, the self-cleavage came to 0.21.
Consider C23G U28C U34C, for which the self-cleavage is 0.08.
As to G22U A26U U32C U38C, the self-cleavage amounted to 0.08.
With C23G C31G U32A C37U A39G C42A the figure was 0.02.
As for C23A C31U C42U, the self-cleavage was found to be 0.11.
Take C23G A24C C37G: the self-cleavage was 0.01.
Take G22U C45A C46A: the self-cleavage worked out at 0.5.
For C23U A25U U28A the value was 0.44; for C23A G36C C42A G44A, 0.45.
With C23U C31A G35A, the self-cleavage is 0.02.
With C23A U28G G33A, the self-cleavage came out at 0.05.
For G22U G27A G44U the value was 0.09; for G22U C23A G40U, 0.05; for C23A A24G C45U, 0.32.
For G22C G29C A39U, the self-cleavage stood at 0.12.
For C23U G27A G44A C45G the value was 0.18.
For G22U G40U U43G the value was 0.05; for C23G G27C G36U, 0.05.
With G22C G30U A41U C42A C45G the figure was 0.02; with G22C G36U C42U C46G, 0.02; with C23G G33C U43A, 0.03.
For C23A U34G G35C, the self-cleavage worked out at 0.05.
C23U G27C U34G G40A: the self-cleavage stood at 0.01.
For G22U U28G U38G the value was 0.04.
On to C23A C42U U43A C46A, for which the self-cleavage is 0.4.
